# Results reported in PubChem BioAssay AID1671194 (National Center for Advancing Translational Sciences (NCATS), 2021).
# Screen size: about 140,000 compounds; about 240 (0.17%) were called active. The shares of active, inactive and inconclusive entries below differ from those in the screen. Calls follow the shape of the dose curve; as a rule, active = well fitted inhibition curve with a large enough effect; inconclusive = small, poorly fitted or top-dose-only effect; inactive = no such curve, though single readings can be large or run the other way. Potencies beside an inconclusive call are fits to weak or partial responses and may not hold up.
# Test: Primary qHTS assay for inhibitors of alpha-synuclein gene (SNCA) expression; also: nearly all actives have a fitted effect of over 45% in size
# Settings: HEK-293 SNCA-luciferase knock-in, luminescence, 24 h; series mostly up to 57.2 µM
# Potency is read from the fitted curve at half-maximal effect; tags tell the direction and shape of the fitted curve.
row,SMILES,Potency
1,COc1ccc(CN(C)C(C)c2cccs2)cc1 (stereo not given),"inconclusive: 2.82 µM [inhibitor, full curve, poor fit]"
2,CCCNC(=O)N(C1CCOCC1)C1CCN(C(=O)c2nccc3ccccc23)CC1,"inconclusive: 8.91 µM [inhibitor, single point]"
3,O=C(c1ccc(Cl)cc1)N1CCn2c(nn(-c3ccc([N+](=O)[O-])cc3)c2=O)C1,"inconclusive: 10 µM [inhibitor, partial curve, poor fit]"
4,O=c1c2nc(-c3ccsc3)ccc2ncn1Cc1ccccc1,inactive
5,CC(C)OC(=O)c1c(-c2ccccc2)c(-c2ccccc2)nn(C)c1=O,"inconclusive: 15.8 µM [inhibitor, partial curve, poor fit]"
6,CCc1ccc(C(=O)c2cn(CC(=O)Nc3ccc(OC)cc3)c3cc4c(cc3c2=O)OCO4)cc1,"inconclusive: 10 µM [inhibitor, partial curve, poor fit]"
7,Fc1ccc(CN2Cc3[nH]cnc3C[C@H]2c2nc(-c3ccc(F)c(Cl)c3)no2)cc1,inactive
8,CCCN1CCN(c2ncnc3sc(C(=O)Nc4c(C)cc(C)cc4C)c(C)c23)CC1,"inconclusive: 2.24 µM [inhibitor, partial curve, poor fit]"
9,COC(=O)[C@@H]1Cc2ncn(Cc3ccc(Cl)cc3)c2CN1Cc1ccc(NC(C)=O)cc1,"inconclusive: 11.2 µM [inhibitor, partial curve, poor fit]"
10,Cc1cc(C)c(C(=O)N(CC2CCN(C3Cc4ccccc4C3)CC2)CC2CCCO2)o1 (stereo not given),"inconclusive: 14.1 µM [inhibitor, partial curve, poor fit]"
11,O=C(NCCn1cccc1-c1nc(-c2ccc3c(c2)OCO3)no1)c1ccc(F)cc1,inactive
12,NS(=O)(=O)c1ccc(NC(=O)C(=O)Nc2ccc3nc4n(c(=O)c3c2)CCCCC4)cc1,"inconclusive: 7.94 µM [inhibitor, partial curve, poor fit]"
13,Cc1ccc(CN2Cc3[nH]cnc3C[C@H]2C(=O)NCc2ccc(C(F)(F)F)cc2)cc1,inactive
14,Cc1cccc(-n2ncc3c(N4CCCC(C)C4)ncnc32)c1 (stereo not given),active: 3.98 µM
15,CCOC(=O)c1ccccc1NC(=O)COc1ccccc1-c1nnc(-c2ccccc2)o1,"inconclusive: 39.8 µM [inhibitor, single point]"
16,CSc1nn(Cc2cccc(C)c2)c(N)c1S(=O)(=O)c1ccccc1,"inconclusive: 39.8 µM [inhibitor, single point]"
17,COc1ccc(C(=O)NC2CN(c3ccnc4ccnn34)C2)cc1,"inconclusive: 3.98 µM [inhibitor, single point]"
18,CCNC(=O)N1CC(Oc2cccc(-c3nc(C)no3)c2)C1,"inconclusive: 8.91 µM [inhibitor, full curve, poor fit]"
19,CCc1ccc(CNCc2c(C(=O)O)n(Cc3ccc(C)cc3)c3cc(C)ccc23)cc1,"inconclusive: 39.8 µM [inhibitor, single point]"
20,CCn1cnnc1-c1nn(C)c2c1CN(C(=O)CCC(=O)N1CC(=O)Nc3ccccc31)CC2,inactive

row,SMILES,Potency
1,Cc1ccc2nc(-c3ccc(NC(=O)c4ccc(S(C)(=O)=O)cc4)cc3)sc2c1,inactive
2,CC(C)CNC(=O)c1ccc2c(c1)NC(C)(COCC1CC1)CO2 (stereo not given),inactive
3,CC(=O)N1CC2(CCCCN2C(=O)CCC(=O)O)Cc2ccccc21 (stereo not given),inactive
4,CC(=O)Nc1ccc(C(=O)NC[C@@H]2C=C(C)[C@H](Cc3nnc(-c4ccccc4F)o3)C[C@H]2C(C)C)cc1,"inconclusive: 39.8 µM [inhibitor, single point]"
5,O=C(Nc1ccc2c(N3CCCC3)ncnc2c1)c1ccc(Br)cc1,"inconclusive: 39.8 µM [inhibitor, single point]"
6,COc1ccc([C@H]2C[C@@H](O)[C@@H](O)[C@@H]2NC(=O)Nc2ccc(C(F)(F)F)cc2)cc1,"inconclusive: 35.5 µM [inhibitor, single point]"
7,COc1ccc(-c2ccc(C(=O)N[C@@H]3COCC[C@H]3OC)o2)cc1,inactive
8,COc1ccc(CCNC(=O)c2cnn(-c3ccc(F)cc3)c2C2CCN(C(=O)OC(C)(C)C)CC2)c(OC)c1,"inconclusive: 25.1 µM [inhibitor, single point]"
9,Cc1ccc(S(=O)(=O)N(CC(=O)NCCc2ccc(Cl)cc2)c2ccccc2C)cc1,"inconclusive: 28.2 µM [inhibitor, partial curve, poor fit]"
10,CC(C(=O)N1CCCN(c2cc(-c3ccc(Cl)cc3)[nH]n2)CC1)c1ccccc1 (stereo not given),inactive
11,CC(=O)Nc1ccc(CNC[C@H]2Cn3cc(-c4ccc(C)cc4)nc3CO2)cc1,inactive
12,CCOCCNC(=O)C1CCN(C(=O)c2ccc(-c3ccccc3OC)cc2)CC1,inactive
13,COCCCNC(=O)c1ccc(-n2c(-c3ccccc3)cc3c2CCC(C)C3)cc1 (stereo not given),"inconclusive: 39.8 µM [inhibitor, single point]"
14,CC(C)NC(=O)N[C@H]1C[C@@H](Cc2cc(CN3CCN(c4ccccc4)CC3)on2)C1(C)C,"inconclusive: 39.8 µM [inhibitor, single point]"
15,c1cncc(-c2nnc([C@H]3CCN(Cc4c[nH]c5ccccc45)C3)o2)c1,"inconclusive: 10 µM [inhibitor, partial curve, poor fit]"
16,Cc1cccc(CSc2nc(-c3cccs3)ccc2C#N)c1,"inconclusive: 35.5 µM [inhibitor, single point]"
17,C=CCc1c(C)nc2nc(SCC(=O)Nc3ccc(C)c(C)c3)nn2c1C,inactive
18,O=C(c1ccccc1F)N1CCCC2(C1)NC(=O)N(Cc1cccc(Cl)c1)C2=O (stereo not given),"inconclusive: 17.8 µM [inhibitor, partial curve, poor fit]"
19,Cc1cc(C)cc(-c2ccc(CN3CCCC3C(=O)NC3CC3)cc2)c1 (stereo not given),"inconclusive: 39.8 µM [inhibitor, single point]"
20,Cc1cccc(C)c1NC(=O)Cn1ccn2nc3c(c2c1=O)CCCCC3,"inconclusive: 7.94 µM [inhibitor, full curve, poor fit]"
